Experimental data as given in the supplement of paper PMC12423691.
The other results are listed elsewhere or left out. Binding of human transcription factors and regulators to the viral nucleoprotein by AlphaScreen, crude cell-free proteins, amounts not normalised, one pass. Fold of the Venus control; higher = more signal. No active / inactive call. Single-pass screen; sequences are the whole Swiss-Prot entries looked up by name.

B1: FOXA1, P55317 (protein)
chain: MLGTVKMEGHETSDWNSYYADTQEAYSSVPVSNMNSGLGSMNSMNTYMTMNTMTTSGNMTPASFNMSYANPGLGAGLSPGAVAGMPGGSAGAMNSMTAAGVTAMGTALSPSGMGAMGAQQAASMNGLGPYAAAMNPCMSPMAYAPSNLGRSRAGGGGDAKTFKRSYPHAKPPYSYISLITMAIQQAPSKMLTLSEIYQWIMDLFPYYRQNQQRWQNSIRHSLSFNDCFVKVARSPDKPGKGSYWTLHPDSGNMFENGCYLRRQKRFKCEKQPGAGGGGGSGSGGSGAKGGPESRKDPSGASNPSADSPLHRGVHGKTGQLEGAPAPGPAASPQTLDHSGATATGGASELKTPASSTAPPISSGPGALASVPASHPAHGLAPHESQLHLKGDPHYSFNHPFSINNLMSSSEQQHKLDFKAYEQALQYSPYGSTLPASLPLGSASVTTRSPIEPSALEPAYYQGVYSRPVLNTS
B2: TAF3, Q5VWG9 (protein)
chain: MCESYSRSLLRVSVAQICQALGWDSVQLSACHLLTDVLQRYLQQLGRGCHRYSELYGRTDPILDDVGEAFQLMGVSLHELEDYIHNIEPVTFPHQIPSFPVSKNNVLQFPQPGSKDAEERKEYIPDYLPPIVSSQEEEEEEQVPTDGGTSAEAMQVPLEEDDELEEEEIINDENFLGKRPLDSPEAEELPAMKRPRLLSTKGDTLDVVLLEAREPLSSINTQKIPPMLSPVHVQDSTDLAPPSPEPPMLAPVAKSQMPTAKPLETKSFTPKTKTKTSSPGQKTKSPKTAQSPAMVGSPIRSPKTVSKEKKSPGRSKSPKSPKSPKVTTHIPQTPVRPETPNRTPSATLSEKISKETIQVKQIQTPPDAGKLNSENQPKKAVVADKTIEASIDAVIARACAEREPDPFEFSSGSESEGDIFTSPKRISGPECTTPKASTSANNFTKSGSTPLPLSGGTSSSDNSWTMDASIDEVVRKAKLGTPSNMPPNFPYISSPSVSPPTPEPLHKVYEEKTKLPSSVEVKKKLKKELKTKMKKKEKQRDREREKDKNKDKSKEKDKVKEKEKDKETGRETKYPWKEFLKEEEADPYKFKIKEFEDVDPKVKLKDGLVRKEKEKHKDKKKDREKGKKDKDKREKEKVKDKGREDKMKAPAPPLVLPPKELALPLFSPATASRVPAMLPSLLPVLPEKLFEEKEKVKEKEKKKDKKEKKKKKEKEKEKKEKEREKEKREREKREKEKEKHKHEKIKVEPVALAPSPVIPRLTLRVGAGQDKIVISKVVPAPEAKPAPSQNRPKTPPPAPAPAPGPMLVSPAPVPLPLLAQAAAGPALLPSPGPAASGASAKAPVRSVVTETVSTYVIRDEWGNQIWICPGCNKPDDGSPMIGCDDCDDWYHWPCVGIMTAPPEEMQWFCPKCANKKKDKKHKKRKHRAH

These binders were tested against nucleoprotein N of Crimean-Congo hemorrhagic fever virus (assay: AlphaScreen luminescence signal relative to Venus negative control (fold); higher = stronger binding to CCHFV N).
Description: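 AlphaScreen binding of cell-free made, FLAG-GST-tagged human transcription factors and regulators (crude translation products) to biotinylated N protein; signal as fold of the FLAG-GST-Venus control. One pass.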
Work on B1 yielded an AlphaScreen luminescence signal of 2.28. For B2, the AlphaScreen luminescence signal was 18.3.
